In the supplement of paper PMC10126150 one finds switch fluorescence ratio data, which are given here for 67 sequences.

In this data set the test system is ATP. Description: switch fluorescence ratio, 500 uM ATP over buffer (Cy3 cluster intensity, sum of 5 cycles each) (fold (ratio)); higher = stronger signal-on switching upon ATP binding; sequences stand for … in TCGTCGGCAGCGTCAGATGTGTATAAGAGACAGTTTTTTTTTTTTTTTTTTTTTTTTT…TC. As to conditions: aptamer strand: ATP DNA aptamer (quencher-CACCTGGGGGAGTATTGCGGAGGAAGG + anchor), 100 nM annealed; ATP concentration: 500 uM; one replicate. Put shortly:
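For every switch-domain sequence, the fluorescence ratio is the mean of per-cluster values, each being summed target-cycle Cy3 intensity over summed buffer-cycle Cy3 intensity. Clusters outside 100-1000 RFU were excluded. On a modified Illumina MiSeq flow-cell, the Cy3-labelled switching-strand clusters were annealed to 100 nM quencher-labelled ATP aptamer, imaged in selection buffer and then after 15 min with 500 uM ATP at 22 °C. Five such cycles were run, with NaOH stripping and re-annealing between them.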

Values marked as one replicate rest on one cluster of the flow cell; about a third of the high ones do not repeat.
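Further: ATP exposure 15 min at 22 °C before imaging.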

Turning to CCTTACTAGG, the switch fluorescence ratio worked out at 1.04.

As for GCTATTATGG, the switch fluorescence ratio is 0.961.

For the sequence GGTCCTGGGT, the switch fluorescence ratio was determined as 0.985.

As for AGTGGTTTCT, the switch fluorescence ratio was 0.983.

As to AGTTGATATT, the switch fluorescence ratio came out at 1.

In the case of GCCTCTGTAT, the switch fluorescence ratio stood at 1.09.

As to GCATTGATAA, the switch fluorescence ratio amounted to 1.02.

For the sequence TGCCGGTGG, the switch fluorescence ratio was determined as 0.96.

Turning to GCTGACGTGT, the switch fluorescence ratio came out at 1.04.

For the sequence AAGTGTGAA, the switch fluorescence ratio was determined as 0.971.

For the sequence GTTGATTTCG, the switch fluorescence ratio was determined as 1.09.

Take TTACAAAAGT: the switch fluorescence ratio turned out to be 1.04.

For ATGCGTAATC, the switch fluorescence ratio stood at 1.15.

Regarding TTTGGCAGAT, the switch fluorescence ratio was 1.05.

In the case of TTTTGCCCAG, the switch fluorescence ratio was determined as 1.05.

Take TCGTGATGA: the switch fluorescence ratio is 1.01.

Consider CTACGTATTG, for which the switch fluorescence ratio amounted to 1.2.

With GTTTCCGGGA, the switch fluorescence ratio was 1.19.

With TAAACGCTTG, the switch fluorescence ratio came to 1.

With AGATGTGTG, the switch fluorescence ratio turned out to be 0.95.

In the case of TGTTGCTATA, the switch fluorescence ratio was 1.

Regarding CCCCATCGCT, the switch fluorescence ratio was determined as 1.06.

GAGGCGACTT: the switch fluorescence ratio worked out at 1.03.

With AGTAAGAGAC, the switch fluorescence ratio stood at 1.03.

On to AGTCCTTGCA, for which the switch fluorescence ratio is 1.09.

As for GGCAGAAGCT, the switch fluorescence ratio is 1.07.

With CTAACGGAGG, the switch fluorescence ratio amounted to 1.02.

Consider TCGCATCA, for which the switch fluorescence ratio turned out to be 1.07.

For GCTATAGCAG, the switch fluorescence ratio was 1.02.

Consider ATGGCGCGGA, for which the switch fluorescence ratio is 1.01.

As to GTGGCGCGTG, the switch fluorescence ratio stood at 0.959.

For TACTTGGATG, the switch fluorescence ratio came to 0.959.

Regarding AACAATCTTC, the switch fluorescence ratio is 0.991.

With GGTTAACCAA, the switch fluorescence ratio amounted to 1.

GTCGCGTGGG: the switch fluorescence ratio stood at 1.02.

Take GAGTACCCGT: the switch fluorescence ratio amounted to 0.989.

As for TTCGCTGAAG, the switch fluorescence ratio amounted to 1.04.

ACTATAGAAA: the switch fluorescence ratio was 0.988.

TACGATGCCC: the switch fluorescence ratio turned out to be 1.06.

As to CTGGCAGTTT, the switch fluorescence ratio was 0.974.

For CCCGCAGATT, the switch fluorescence ratio was 2.48.

On to ATTCGTTATC, for which the switch fluorescence ratio is 0.976.

For ATTAGCCTCC, the switch fluorescence ratio turned out to be 1.15.

TGGTGGGAAA: the switch fluorescence ratio turned out to be 0.96.

Regarding GTCGTTATCT, the switch fluorescence ratio was determined as 0.964.

On to TACCACATG, for which the switch fluorescence ratio was 1.03.

Regarding GTTGCACGCT, the switch fluorescence ratio stood at 0.999.

With TAAAACGGAT, the switch fluorescence ratio came out at 1.

Take CCAATTGT: the switch fluorescence ratio is 1.01.

As for GGGCAAAGCG, the switch fluorescence ratio was 0.988.

Turning to GAGACGAGGT, the switch fluorescence ratio was 1.03.

On to TGTATGTATA, for which the switch fluorescence ratio was 1.06.

In the case of ACCCTAGTCT, the switch fluorescence ratio worked out at 1.04.

As for GACCTTAGTG, the switch fluorescence ratio amounted to 1.03.

CAAATTAAAT: the switch fluorescence ratio is 0.995.

For AATACAGACG, the switch fluorescence ratio came out at 1.07.

In the case of TAATTGGAGC, the switch fluorescence ratio amounted to 1.17.

On to TCTATGTGCT, for which the switch fluorescence ratio worked out at 0.967.

For ATCACGGCG, the switch fluorescence ratio was 1.

AGCGCTGAGT: the switch fluorescence ratio stood at 1.01.

AATGCCGAGA: the switch fluorescence ratio turned out to be 0.955.

With TTGAATTCCA, the switch fluorescence ratio worked out at 0.92.

On to TGTACCTAAT, for which the switch fluorescence ratio is 1.05.

Consider GCCGCCGCT, for which the switch fluorescence ratio was determined as 1.17.

As for AATCAACAAA, the switch fluorescence ratio is 0.971.

Regarding CACAAGGCAT, the switch fluorescence ratio was determined as 1.75.

Turning to GGATCGAAGC, the switch fluorescence ratio is 1.04.
